Assay results from PubChem BioAssay AID463173 (ICCB-Longwood Screening Facility, Harvard Medical School, 2010).
The campaign covered roughly 52,000 compounds. About 1,700 (3.3%) were called active. No stated cut-off is given here; in the data, active means survival mostly below about 52% (no sharp cut-off); inactive means mostly above about 56%. This is one part of the list.

System: Wild type
Experiment: growth inhibition of S. aureus wild type versus tarO mutant, primary screen, teichoic acid synthesis inhibitors, RN4220, OD600 (AID 463173)
Conditions: S. aureus RN4220 wild type/DeltatarO growth, OD600, 18 h, active compounds read low, screened at 18.75 µg/mL (by protocol)

| Compound | survival |
| --- | --- |
| Cc1ccc(-n2nnnc2CNC(=O)C(C)C)cc1C | inactive: 79% |
| CCSc1nnc2c(n1)OC(CC)N(C(C)=O)c1ccccc1-2 (stereo unspecified) | inactive: 131% |
| O=C(NCCC1=CCCCC1)c1ccc2c(c1)ncn2-c1ccc(F)c(F)c1 | inactive: 87% |
| CC(=O)c1ccc(N2CCN(S(=O)(=O)c3ccc4[nH]c5c(c4c3)CCCC5)CC2)cc1 | inactive: 57% |
| O=c1c2c(-c3ccc(Cl)cc3)ccnc2[nH]n1-c1ccccc1 | inactive: 85% |
| CC(=O)Nc1cccc(NC(=O)c2c(-c3ccccc3)c(-c3ccccc3)nn(C)c2=O)c1 | inactive: 85% |
| CCc1ccccc1NS(=O)(=O)c1ccc2c(c1)OCC(C(=O)N1CCCC1)O2 (stereo unspecified) | inactive: 71% |
| CCCN(CCC)C(=O)CSc1nc2sc3c(c2c(=O)n1-c1ccccc1)CCN(C(C)=O)C3 | inactive: 154% |
| CCOCc1cc(CN2CCN(c3cccc(Cl)c3)CC2)c(O)c2ncccc12 | inactive: 67% |
| CCc1ccc(Nc2nc(N)nc(CSc3nc4ccccc4s3)n2)cc1 | inactive: 34% |
| CCN(Cc1ccccc1)Cc1c(O)ccc2c(=O)c(-c3ccccc3Cl)c(C(F)(F)F)oc12 | inactive: 95% |
| O=C(NCc1cccc(F)c1)c1cccc(NC(=O)c2nsc3ccccc23)c1 | inactive: 87% |
| COc1ccc(OC)c(C2c3c(oc4ccc(C)cc4c3=O)C(=O)N2CCCN(C)C)c1 (stereo unspecified) | inactive: 89% |
| CCC(CC)C(=O)Nc1cccc(-c2nc3ccccc3s2)c1 | inactive: 73% |
| CCOc1ccc(-c2nnc(SCC(=O)NCc3ccc(C)cc3)nc2-c2ccc(OCC)cc2)cc1 | inactive: 124% |
| Fc1ccc(-c2cn3cc(Cc4ccc(Cl)cc4)sc3n2)cc1 | inactive: 75% |
| CCc1ccc(-n2nc3ccc(NC(=O)c4ccc(C#N)cc4F)cc3n2)cc1 | inactive: 73% |
| COc1cccc(CNC(=O)C2CCN(c3nnc(-n4c(C)ccc4C)s3)CC2)c1 | inactive: 77% |
| Cc1cccc(-n2ncc3c(NC4CCCC4)ncnc32)c1 | inactive: 69% |

| Compound | survival |
| --- | --- |
| CCC(C(=O)Nc1cc(-c2nc3cccnc3s2)ccc1C)c1ccccc1 (stereo unspecified) | inactive: 71% |
| O=C(Cn1c(SCC(=O)Nc2nccs2)nc2ccccc21)NCc1ccccc1 | inactive: 110% |
| S=C(Nc1ccccn1)c1ccccc1 | inactive: 110% |
| CCOc1ccccc1C1CC(=O)Oc2c1c(=O)n(C)c1ccccc21 (stereo unspecified) | inactive: 68% |
| Cc1ccc(Cl)cc1NC(=O)Cn1c(=O)c2ccccc2n2nncc12 | inactive: 91% |
| CC1(C)Oc2ccc(C(=O)Nc3ccccc3)cc2N(CC(=O)N2CCCC2)C1=O | inactive: 117% |
| CC1=C(C(=O)Nc2ccc(C)cc2C)C(c2ccccc2)n2ncc(C(=O)Nc3ccccc3)c2N1 (stereo unspecified) | inactive: 75% |
| CCOC(=O)c1c(-c2ccccc2)csc1NC(=O)c1cc(-c2ccc(Cl)cc2)on1 | inactive: 85% |
| Cc1ccccc1-c1nc2cc(NC(=O)COc3ccc(F)cc3)ccc2o1 | inactive: 85% |
| O=C(NC1CCCC1)C(c1ccc(O)cc1)N(C(=O)Cn1nnc(-c2cccs2)n1)C1CCCC1 (stereo unspecified) | inactive: 100% |
| CCOC(=O)CSc1nc2ccc(NC(=O)c3ccccc3F)cc2s1 | inactive: 69% |
| CCOC(=O)c1sc(NC(=O)c2cc(-c3ccc(F)cc3)on2)c(C(=O)OCC)c1C | inactive: 100% |
| COC(=O)c1ccc2c(=O)n(CCCCCC(=O)N3CCN(c4ccc(OC)cc4)CC3)c(=O)[nH]c2c1 | inactive: 66% |
| Cc1c(CC(=O)NCCc2ccc(Cl)cc2)c(=O)oc2c(C)c3occ(C(C)(C)C)c3cc12 | inactive: 87% |
| Cc1ccc(NC(=O)C2CCCN(S(=O)(=O)c3cccc4cccnc34)C2)c(C)c1 (stereo unspecified) | inactive: 72% |
| CCOc1ccc(CNC(=O)c2ccc(Sc3ccc(Cl)cc3)c(NC(C)=O)c2)cc1OC | inactive: 89% |
| O=C(CCC1CCCC1)N1CCN(C(=O)Cc2ccccc2)CC1 | inactive: 94% |
| CCS(=O)(=O)c1nc(S(=O)(=O)c2ccc(Cl)cc2)c(NCc2ccccc2Cl)s1 | inactive: 83% |
| COc1ccc2oc(=O)c(C(N)=O)cc2c1 | inactive: 99% |

| Compound | survival |
| --- | --- |
| O=C(CSc1nnc2[nH]c(=O)cc(-c3ccccc3)n12)Nc1cc(C(F)(F)F)ccc1Cl | inactive: 64% |
| CCOc1ccc(NC(=O)CN(C)S(=O)(=O)c2cnc[nH]2)cc1 | inactive: 76% |
| COc1ccc(NC(=O)NC(C)c2c(-n3cccc3)sc3c2CCN(C)C3)c(OC)c1 (stereo unspecified) | inactive: 67% |
| Nc1c(C(=O)Nc2cccc(C(F)(F)F)c2)c2ccccn2c1C(=O)c1ccccc1 | inactive: 92% |
| Cc1ccc2oc(-c3cc(NC(=O)/C=C/c4ccco4)ccc3Cl)nc2c1 | inactive: 25% |
| CC(=O)Nc1nonc1-c1nc2ccccc2n1Cc1ccccc1Br | inactive: 97% |
| COc1cc2c(cc1OC)C(COc1ccc3c(C)cc(=O)oc3c1)N(C(=O)CC(C)C)CC2 (stereo unspecified) | inactive: 69% |
| Cc1ccc2c(c1)N(C(=O)Nc1cccc3c1CCCC3)CC(C)O2 (stereo unspecified) | inactive: 98% |
| COc1c(Cl)cc(Cl)cc1/C=C(\C#N)C(N)=O | inactive: 100% |
| Brc1ccc2nc(SCCOc3ccccc3)[nH]c2c1 | active: 0% |
| CCOC(=O)c1noc2nc(C)n(Cc3ccc([N+](=O)[O-])cc3)c(=O)c12 | inactive: 85% |
| Cc1cccc(Cn2nnc3c(=O)[nH]c(C4CCN(C(=O)c5ccc(F)cc5)CC4)nc32)c1 | inactive: 29% |
| COc1ccc(NC(=O)CCc2c(C)nc3c(-c4ccc(F)cc4)c(C)nn3c2C)c(OC)c1 | inactive: 78% |
| Cc1ccccc1CN1CCCN(CC(=O)Nc2ccc3c(c2)OCCO3)S1(=O)=O | inactive: 72% |
| COC(=O)c1cc(NC(=O)c2ccc(-c3ccc(Cl)cc3Cl)o2)cc(C(=O)OC)c1 | inactive: 65% |
| O=C(NCc1cccc(Cl)c1)C1CCCN(c2ncnc3onc(-c4ccc(F)cc4)c23)C1 (stereo unspecified) | inactive: 138% |
| CCn1c(=O)cc(SCC(=O)N2CCN(c3ccccc3F)CC2)c2ccccc21 | inactive: 73% |
| CCOc1ccc(NC(=O)c2c(NC(=O)c3cccs3)sc3c2CCC(C(C)(C)C)C3)cc1 (stereo unspecified) | inactive: 76% |
